The source gives no read counts; variants with many changes may rest on few reads.

Results on 20 variants are retold here after the RNAGym collection of RNA variant scans (doi:10.7554/elife.90254).

B1: LINE1-full (parent)
chain: UACGUAGGUGGUUUUCCCCUGAUAGUGCUAAGGGGGCCUGGAAGUUUGGACUGGGCAGAGCUCAACACAGCGUGGCAAAGUGGCUGUGGCUAGACUGCCUCUCUGGAUUCCUCGUCACUCAGCAGGGCAUCUCUGAGAGAAAUGCC

The variants in this data set derive from B1. Put plainly: self-cleavage, relative activity (ratio to wild type); higher = more cleavage; in vitro, sequencing; the parent is a self-cleaving ribozyme.
As to UACGUAGGUGGUUUUCCCCUGAAAGUGCUAAGGGGGCCUGGAAGUUUGGACCGGGCAGAGCUCAACACAGCGUGGCAAGGUGGCUGUGGCUAGACUGCCUCUCUGGAUUCCUCGUCACUCAGCAGGGCAUCUCUGAGAGAGAUGCC [U23A U52C A79G A141G], the self-cleavage turned out to be 1.47.
To UACGUAGGUGGUUUUCCCCUGAUAGUGCUAAGGAGGCCUGGAAGUUUGGACUGGGCAGAGCUCAUCACAGCGUGGCAAAGCGGCUGUGGCUAGACUGCCUCUCUGGAUUCCUCGUCACUCAGCAGGGCAUCUCUGAGAGAAAUGCC [G34A A65U U81C] belongs 0.04; to UACGUAGGUGGCUUUCCCCUGAUAGUGCUAAGGGGGCCUGGAAGUUUGGACUGGGCAGAGCUCAACACAGCGCGGCAAAGUGGCUGUGGCUAGACUGCCUCUCUGGAUUCCUCGUCACUCAGCAGGGCAUCUCUGAGGGAAAUGCC [U12C U73C A138G], 1.36; to UACGUAGGUGGUUUUCCCCCGAUAGUGCAAAGGGGGCCUGGAAGUUUGGACUGGGCAGAGCUCAACACAGCGUGGCAAAGUGGCUGUGGCUAGACUGCCUCUCUGGAUUCCUCGUCACACAGCAGGGCAUCUCUGAGAGAAAUGCC [U20C U29A U119A], 0.46.
The figure for UACGUAGGUGGUUUUCCCCUGAUAGUGCUUAGGGGGCCUGGGAGUUUGGACUGGGCAGAGCUCAGCACAGCGUGGCAAAGUGGCUGUGGCUAGUCUGCCUCUCUGGAUUCCUCGUCACUCAGCAGGGCAUCUCUGAGAGAAAUGUC [A30U A42G A65G A94U C145U] is 0.14.
To UACGUAGGUGGUUUUCCCCUGACAGUGCUAAGGGGGCCCGGAAGUUUGGAUUGGGCAGAGCUCAACACAGCGUGGCAAAGUGGCUGUGGCUAGACUGCCUCUCUGGAUUCCUCGUCACUCAGCAGGGCAUCUCUGAGAGAAACGCC [U23C U39C C51U U143C] belongs 1.16; to CACGUAGAUGGUUUUCCCCUGAUAGUGCUAAGGGGGCCUGGAAGUUUGGACUGGGCAGAGCUCAACACAGCGUGGCAAAGUGGCUGUGGCUAGACUGCCUCUCUGGAUUCCUCGUCGCUCAGCAGGGCAUCUCUGAGAGAAAUGCC [U1C G8A A117G], 0.72.
Consider UACGUAGGUGGUUUUCCCCUGAUAGUGCUAAGGGGGCCUGGAAGUUUGGACUGGGCAGAGCUCAACACAGCGAGGCAAAGUGGCUGUGGCUAGACUGCCUCUCUGGAUUACUCGUCACUCAGCAGGGCAGCUCUGAGAGAAAUGCC [U73A C110A U130G], for which the self-cleavage amounted to 0.72.
To UACGUAGAUGGUUUUCCCCUGAUAGUGCUAAGGGGGCCUGGAAGUUUGGACUGGGCAGAGCUCAACACAGCGUGGCAAAGUGGCUGUGGCUAGACUGCCUCUCUGGAUUCCCCGUCACUCAGCGGGGCAUCUCUGGGAGAAAUGCC [G8A U112C A124G A136G] belongs 0.77.
To UACGUAGGUGGUUUUCCCCUGAUAGUGCUAAGGGGGCCAGGAAGUUUGGACUGGGCAGAGCUCGACACAGCGUGGCAAAGUGGCUGUGGCUAGACUGCCUCUCUGGAUUCCUCGUCACUCAGCAGGGCAUCUCUGAGAGAAGUGCC [U39A A64G A142G] belongs 0.29; to UAUGUAGGUGGUUUUCCCCUGAUAGUGCUAAGGGGGCCUGGAAGUUUGGACUGGGCAGAGAUCAACACAGCGUGGCAAAGUGGCUGUGGCUAGACUGCCUCUCUGGAUUCCUCGUCACUCAGCGGGGCAUCUCUGAGAGAAAUGCC [C3U C61A A124G], 0.09; to UCCGUAGGUGGUUUUCCCCUGAUAGUGCUAAGGGGGCCUGGAAGUUUGGACUGGGCAGAGCUCAACGCAGCGUGGCAAAGUGGCUGUGGCUAGGCUGCCUCUCUGGAUUCCUCGUCACUCAGCAGGGCAUCUCCGAGAGAAAUGCC [A2C A67G A94G U134C], 0.27.
For UACGUAGGUGGUUUUCCCCUGAUAGUGCUAAGGGGGCCUGGAAGCUUGGACUGGGCAGAGCUUAACACAGCGUGGCGAAGUGGCUGUGGCUAGUCUGCCUCUCUAGAUUCCUCGUCACUCAGCAGGGCAUCUCUGAGAGAAAUGCC [U45C C63U A77G A94U G105A], the self-cleavage worked out at 0.09.
The figure for UACGUAGGUGGUUUUCCCCUGAUAGUGCCAAGGGGGCCUGGAAGUUUGGACUGGGCAGAGCUCAACACAGCGUGGCAAAGUGGCUGUGGCUAGACUGCCUCUCUGGAUUCCUCGCCACUCAGCAGGGCAUCUCUGAGGGAAAUGCC [U29C U115C A138G] is 2.83.
The figure for UACGUAGGUGGUUUUCCCCGGAUAGUGCUAAGGGGGCCUGGAAGUUUGGACUGGGCAGAGCUCAACUCAGCGUGGCAAAGUGGCUGUGGCUAGACUGCCUCCCUGGAUUCCUCGUCACUCAGCAGGGCAUCUCUGAGAGAAACGCC [U20G A67U U102C U143C] is 0.22.
The figure for UACGUAGGUGGUUUUCCCCUGAUAGUGCUAAGGGGGCCUGGGAGUUUGGACUGGGCAGAGCACAGCACAGCGUGGCAAAGUGGCUGUGGCUAGACUGCCUCUCUGGAUUCCUCGUCACUCAGCAGGGCAUCUCUGAGAGAAAUGCC [A42G U62A A65G] is 0.04; for UACGUAGGUGGUUUUCCCCUGAUAGUGCUAAGGGGGCCUGGAAGUUUGGACUGGGCAGAGCUCAACACAGCGUGGCAGAGUGGCUGUGGCUAGACUGCCUCUCUGGAUUCCCCGUCACUCAGCAGGGCAUCUCUGUGAGAAAUGCC [A78G U112C A136U] it is 2.28.
Consider UACGUAGGUGGGGUUCCCCUGAUAGUGCUAAGGGGGCCUGGAAGUUUGGACUGGGCGGAGCUCAACACAGCGUGGCGAAGUGGCUGUGGCUAGACUGCCUCUCUGGAUUCCUCGUCACUCAGCAGGGCAUCUCUGAGAGAAAUGCC [U12G U13G A57G A77G], for which the self-cleavage came to 1.31.
The figure for UACGUAGGUGGUUUUCCCCUGAUAGUGCUAAGGGGGCCUGGAAGUAUGGACUGGGCAGAGCUCAACACAGCGUGGCAAAGUGGCUGUGGCUAGACUGCCUCUCUGGAUUCCUCGUCACUCAGCAGGGCAUCUCUGAGAGGGAUGCC [U46A A140G A141G] is 1.08; for UACGUAGGUGGUUUUCCCCUGAUAGUGCUAAGGGGGCCUGGAAGUUUGGACUGGGCAGAACUCAACACAGCGUGGCAUAGUGGCUGAGGCUAGACUGCCUCUCUGGAUUCCUCGUCACUCAGCAGGGCAUCUCUGAGAGAAAUGCC [G60A A78U U87A] it is 0.03.
